Measured values: the supplement of paper PMC7335073
Over roughly 4,100 sequences, “relative CpG methylation activity (normalised to average over all NNNCGNNN flanks)” has its median near 0.87; the highest 2% begin near 2.4. Some of the results follow.

Target: DNMT3A catalytic domain (mouse) (UniProt O88508)
Assay: relative CpG methylation activity (normalised to average over all NNNCGNNN flanks) (relative (1 = mean)); higher = more methylation of the central CpG
Conditions: system: in vitro, murine catalytic domain; CpG state: hemimethylated substrate pool; residues: 608-908
Outline: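 Each experiment was done in two independent repeats, using pooled dsDNA substrates with a central CpG flanked by 10 random nucleotides, methylated for 60 min at 37 °C by the murine DNMT3A or DNMT3B catalytic domain with 0.8 mM S-adenosyl-L-methionine in HEPES pH 7.5 buffer. After bisulfite conversion and PCR, the DNA was read by Illumina sequencing. Methylation was averaged per context, defined by three bases on each side of the CpG. Relative methylation activity is each context's average methylation over the mean of all contexts.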

Sequence | relative CpG methylation activity
AAACGGAC | 0.891
TTCCGTGT | 0.462
CCTCGCAC | 1.77
TCTCGACC | 1.16
ACACGACA | 1.69
AGCCGGCG | 0.532
AAACGCTC | 1.44
CTTCGGAC | 1.26
TTTCGGGT | 0.729
AGGCGTTC | 0.467
ATTCGAGC | 1.1
CCACGATC | 1.52
ACGCGTTT | 0.798
TGCCGAAA | 0.797
TTACGAGA | 1.93
TGTCGAAA | 0.438
GGTCGCTT | 1.03
TTCCGGTA | 2
CGGCGTGT | 0.143
TATCGTGC | 0.586
CCCCGCGT | 1.11
ACACGTCT | 1.97

Sequence | relative CpG methylation activity
AAACGAGC | 0.959
GCTCGTTA | 0.56
AGACGTAG | 0.32
GGCCGCCG | 1.34
AAACGATC | 0.829
CTCCGATC | 2.41
GAGCGCGT | 0.586
GCTCGACT | 0.868
TAACGTGC | 0.399
CTACGGCG | 1.56
ATTCGAGA | 0.916
GCCCGAAC | 1.48
CGTCGATT | 0.461
TCGCGGGC | 0.632
ATACGCGA | 1.33
GGGCGGGC | 0.364
TAACGAGC | 1.14
CTACGTGA | 1.2
TAACGACT | 0.585
CTTCGTAT | 1.06
TTTCGTGA | 0.781
AGCCGAGT | 1.02

Sequence | relative CpG methylation activity
GCGCGCAA | 1.14
GGTCGGAT | 0.139
CGCCGTCC | 1.42
AGTCGTGA | 0.125
AAACGCAG | 0.29
CAGCGTTT | 0.267
CTCCGCCA | 2.37
ACACGCTG | 1.74
CCTCGATG | 0.455
CCCCGCGA | 0.961
CGACGCTT | 1.38
TAGCGTCT | 0.714
CCACGCGC | 1.71
TTACGACG | 1.53
TGTCGGCT | 0.492
GTCCGTTC | 1.47
CTACGATG | 1.2
AACCGGAC | 0.719
GAACGTCT | 1.31
GGCCGAAT | 0.346
AATCGAGG | 0.352
TCCCGTCA | 1.49

Sequence | relative CpG methylation activity
GAACGACC | 0.912
GCTCGAAG | 0.538
ATCCGTTG | 0.462
ATACGATA | 1.71
TCACGAAG | 0.777
CGACGTGT | 0.11
CTCCGACA | 1.71
GCGCGTAC | 0.719
AAACGGGA | 0.59
TGCCGGCA | 0.798
CAGCGCGA | 0.301
ACCCGTAG | 0.643
GGCCGTTA | 0.476
TGCCGGAG | 0.479
TGACGCGG | 0.155
CCGCGCGA | 0.556
GGACGCAG | 0.28
TGACGAGC | 1.03
GGCCGAAG | 0.685
AAGCGGCA | 0.628
